According to PubChem BioAssay AID1345082 (National Center for Advancing Translational Sciences (NCATS), 2018):
Screen size: about 94,000 compounds; about 4,000 (4.3%) were called active. Inconclusive means that the source gave no clear call. Such entries were picked first, then a sample of the others. Calls come from the whole dose curve; as a rule, active = well fitted inhibition curve with a large enough effect; inconclusive = small, poorly fitted or top-dose-only effect; inactive = no such curve, though single readings can be large or run the other way. A potency beside an inconclusive call is a rough fit, not a confirmed value.

Assay: Cytotoxic Profiling in NIH 3T3 Cell Line of Diverse Libraries Using Quantitative High-Throughput Screening; note: nearly all actives have a fitted effect of over 55% in size
Settings: NIH 3T3 viability, CellTiter-Glo ATP luminescence, 48-72 h; activity change, negative = cytotoxicity: at 96.7 µM (top of the series) unless noted; series mostly up to 96.7 µM
In short: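 Cytotoxicity is measured as loss of cellular ATP: NIH 3T3 cells (400/well) are exposed to compound for 48 or 72 hr at 37 °C, then CellTiter-Glo luminescence is imaged after 10 min at room temperature.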
% is set by controls: 0 for no effect and ±100 for the full control effect; potency is the fitted concentration of half-maximal effect; tags give direction and shape of the fitted curve.

Structure (SMILES)	Potency	activity change, negative = cytotoxicity	outcome
COC(=O)c1ccc2nc(C[C@@H]3C[C@@H](C(C)C)[C@H](CNCc4ccc(NC(C)=O)cc4)C=C3C)[nH]c2c1	inconclusive: 35.5 µM [inhibitor, full curve, poor fit]		
CS(=O)(=O)N1CCC2(CC1)CC(CC(=O)NCCCn1cccn1)CCO2 (stereo unspecified)		inactive: -1.35%	
O=C1CCN(C[C@@H](O)COCc2ccccc2)c2ccsc2CN1Cc1ccccc1	inconclusive: 39.8 µM [inhibitor, partial curve]		
CCC1Oc2ccc(NC(=O)COc3ccccc3)cc2CN(Cc2ccccc2Cl)C1=O (stereo unspecified)	inconclusive: 11.2 µM [inhibitor, full curve]		
COc1ccc(-n2nc3n(c2=O)CCN(C(=O)c2ccc(C)cc2)C3)cc1	inconclusive: 70.8 µM [inhibitor, partial curve, poor fit]		
CCc1[nH]c2c(CNC(=O)C(C)O)cc(C)cc2c1C (stereo unspecified)		inactive: -15.7%	
C[S+](=O)([O-])NCCNC(=O)c1ccc(-c2cccc(C(F)(F)F)c2)cc1	inconclusive: 70.8 µM [inhibitor, single point]		
CC1(c2ccccc2)N(Cc2ccccc2)C(=O)OC12CCN(C(=O)c1cccc(Cl)c1)CC2 (stereo unspecified)	inconclusive: 31.6 µM [inhibitor, full curve]		
O=C(NC1CCNCC1)c1cc(C2CC2)nc2onc(C3CCNC3)c12 (stereo unspecified)		inactive: -14.6%	
Cc1noc2c(-c3cccc(CO)c3)cc(-c3cccs3)nc12	active: 44.7 µM		
Cc1ccc(CN2C(=O)[C@@H]3C[C@@H](O)CN3C3(CN(Cc4cccc(F)c4)C3)C2=O)o1		inactive: 0.726% [at 174 µM]	
COc1cc(NC(=S)N[C@H]2CO[C@H]3[C@@H]2OC[C@@H]3n2nnnc2Oc2ccc(-n3cncn3)cc2)cc(OC)c1	inconclusive: 4.47 µM [inhibitor, full curve]		
O=C(Nc1ccc2c(c1)OCCO2)N1CCC(Cc2nc(-c3ccncc3)n[nH]2)CC1		inactive: -31.1%	
COc1ccc(-c2nc(C(C)C)nc3c2CCN(C(C)=O)CC3)cc1		inactive: -26.6% [at 138 µM]	
COc1ccc(CN2CC(O)CN([S+](=O)([O-])c3ccc(C)cc3)CC2=O)cc1 (stereo unspecified)	inconclusive: 50.1 µM [inhibitor, partial curve, poor fit]		
O=C(N[C@H]1CO[C@H]2[C@@H]1OC[C@@H]2Nc1nccc(C2CCCC2)n1)c1ccco1	inconclusive: 63.1 µM [inhibitor, partial curve, poor fit]		
Cc1ccc(NC(=O)N2CCC3(CCNC(=O)CC3)CC2)cc1F	inconclusive: 50.1 µM [inhibitor, partial curve, poor fit]		
COc1ccc([C@H](C)NC(=O)c2c(C)noc2-c2ccccc2C)cc1	inconclusive: 44.7 µM [inhibitor, partial curve, poor fit]		
CCCCNC(=O)Cn1nc2n(c1=O)CCN(Cc1cccc(Cl)c1)C2=O			inactive
COc1ccc(Cc2nc3nccc(-c4cccc(OC)c4)n3n2)cc1	inconclusive: 44.7 µM [inhibitor, partial curve, poor fit]		
O=S(=O)(c1cccs1)N1CCN(c2ccnc3ccnn23)CC1	inconclusive: 50.1 µM [inhibitor, full curve, poor fit]		
Cc1cccc(C(=O)N2CCCN(c3cc(-c4ccc(Cl)cc4)[nH]n3)CC2)c1	inconclusive: 39.8 µM [inhibitor, partial curve, poor fit]		

Structure (SMILES)	Potency	activity change, negative = cytotoxicity	outcome
Cc1cccc(-n2nc(C)c(CCC(=O)N3CCSCC3)c2Oc2ccc(F)cc2F)c1	inconclusive: 44.7 µM [inhibitor, partial curve, poor fit]		
O=C1NC2(CCCN(Cc3ccc(F)cc3)C2)Oc2ccccc21 (stereo unspecified)	inconclusive: 89.1 µM [inhibitor, partial curve, poor fit]		
COc1ccc(Cn2c(=O)c(C(=O)N3CCN(C(=O)c4ccccc4F)CC3)nc3cccnc32)cc1	inconclusive: 44.7 µM [inhibitor, partial curve, poor fit]		
Cc1nn(-c2ccccc2)c(Oc2ccccc2F)c1CCC(=O)NCC1CC1	inconclusive: 50.1 µM [inhibitor, partial curve, poor fit]		
Fc1ccc(N2CCN(c3nc(-c4ccccc4F)no3)CC2)cc1		inactive: -39.4%	
O=C(C1CCOCC1)N1CCCC(CCc2ccccc2C(F)(F)F)C1 (stereo unspecified)	inconclusive: 56.2 µM [inhibitor, partial curve, poor fit]		
Cc1cccc(S(=O)(=O)N2CCc3c(C(=O)NCCN4CCCCC4)cccc32)c1	inconclusive: 39.8 µM [inhibitor, partial curve, poor fit]		
CCCC(NC(C)=O)c1nc(CC(N)=O)nn1-c1ccc(F)cc1F (stereo unspecified)			inactive
O=C(c1ccncc1)N1CCC2(CC1)CC(N(Cc1ccc(F)cc1)C1CC1)CCO2 (stereo unspecified)		inactive: -15.6%	
O=C(Nc1ccc(Cl)cc1)N1CCC(c2nn(-c3ccc(F)cc3)c(=O)[nH]2)CC1	inconclusive: 44.7 µM [inhibitor, partial curve, poor fit]		
COc1ccc(C(=O)N2CC(N3C(=O)c4c(c(C)nn4-c4ccccc4)C3C(C)C)C2)cc1 (stereo unspecified)		inactive: -18.4%	
CCC(c1cccs1)N1C(=O)[C@H]2CN(CCC(C)C)C[C@H]2C1=O (stereo partly specified)		inactive: -28.4%	
Cc1noc(-c2ccc(C(C)(C)C)cc2)c1C(=O)NCc1cccc(Cl)c1	inconclusive: 44.7 µM [inhibitor, partial curve, poor fit]		
CC(C)n1cc(C(=O)NCc2cccnc2Oc2ccc(F)cc2F)cn1	inconclusive: 79.4 µM [inhibitor, partial curve, poor fit]		
C=CCN(C)C(=O)[C@@H](C)C1CC[C@@]2(C)Cc3sc(Nc4c(Cl)cccc4Cl)nc3[C@@H](C)[C@@H]2[C@H]1O (stereo partly specified)	active: 44.7 µM		
N#Cc1cccc(C(=O)NC2CCN(c3cc(-c4ccccc4)[nH]n3)CC2)c1	inconclusive: 50.1 µM [inhibitor, partial curve, poor fit]		
COCC(=O)N1CC(N2C(=O)c3c(c(C)nn3-c3ccccc3)C2C)C1 (stereo unspecified)		inactive: -17.8%	
O=C1CCN(Cc2ccccc2)CCCC(c2nc(-c3cnccn3)no2)CCN1 (stereo unspecified)		inactive: -22.5%	
Cc1cccc(OCCc2noc(C3CCCNC3)n2)c1 (stereo unspecified)		inactive: -15.7%	
CN(C)CCNC(=O)c1n[nH]c2c1CN(C(=O)c1cccc(OC(F)(F)F)c1)CC2		inactive: -6.75%	
O=C(Cc1c[nH]c2ncc(-c3ccccc3Oc3ccccc3)cc12)N1CCOCC1	inconclusive: 56.2 µM [inhibitor, partial curve, poor fit]		
O=C(c1nnc(COc2ccc3cnccc3c2)n1-c1ccccc1)N1CCC[C@@H]1c1cccc(F)c1	inconclusive: 44.7 µM [inhibitor, partial curve, poor fit]		

Structure (SMILES)	Potency	activity change, negative = cytotoxicity	outcome
CC(C)CCNC(=O)c1cc2n(n1)CC(c1ccc3c(c1)OCO3)OC2 (stereo unspecified)	inconclusive: 44.7 µM [inhibitor, partial curve, poor fit]		
Cn1cnc(S(=O)(=O)N2CCOc3ccc(CN4CCc5ccccc5C4)cc3C2)c1		inactive: -15.4%	
Cc1cccc(CC(=O)N2CCC[C@H]2c2nc(-c3ccccc3)no2)c1	inconclusive: 50.1 µM [inhibitor, single point]		
Cc1cccc(CNC[C@H]2Cn3c(-c4ccc(Cl)cc4)cnc3CO2)n1		inactive: -25.2% [at 174 µM]	
CN1CC(=O)N(c2cccnc2)Cc2c1ncnc2N1CCC(O)CC1			inactive [at 138 µM]
COc1ccc(OCC2CN(CCc3ccccc3)S(=O)(=O)c3cccnc3O2)cc1 (stereo unspecified)	inconclusive: 35.5 µM [inhibitor, partial curve, poor fit]		
COc1cccc(CNC(=O)c2nc3cccnc3n(Cc3ccccc3)c2=O)c1	inconclusive: 50.1 µM [inhibitor, partial curve, poor fit]		
CNC(=O)c1cccn2cncc12		inactive: -9.72% [at 174 µM]	
CCCCn1c(=O)c(C(=O)N2CCN(C(C)=O)CC2)nc2cccnc21	inactive		
O=C(Cc1c[nH]c2ccccc12)NCC12CCC=C1N(CC1CC1)C(=O)CC2 (stereo unspecified)		inactive: -16.9%	
COc1cccc(C(=O)N2C(C(=O)NC3CC3)COC23CCN(C(=O)C2CC2)CC3)c1 (stereo unspecified)		inactive: 0.789%	
Cc1noc2c(N3CCOCC3)cc(-c3cccs3)nc12	inconclusive: 17.8 µM [inhibitor, full curve, poor fit]		
NC1CCCN(Cc2cc(F)ccc2-n2cccn2)CC1 (stereo unspecified)		inactive: -24.9%	
O=C(NC[C@H]1COCc2nc3cc(F)ccc3n21)C1CC1	active: 79.4 µM		
O=C(C[C@@H]1CCNC[C@@H]1Cc1cc(CSc2ccccc2)on1)N1CCCCC1	inconclusive: 126 µM [inhibitor, single point]		
CN(C)CC1(O)CCC2(CCN(C(=O)c3[nH]nc4c3CCc3ccccc3-4)CC2)CC1		inactive: -13.7%	
Cn1c(CN2Cc3[nH]cnc3C[C@H]2C(=O)NCc2ccc(C(F)(F)F)cc2)nc2ccccc21	inconclusive: 50.1 µM [inhibitor, partial curve, poor fit]		
O=C(NCc1ccccc1)c1ccccc1OC1CN(Cc2ccc(O)c(F)c2)C1	inconclusive: 44.7 µM [inhibitor, partial curve, poor fit]		
COc1ccc(CC(=O)N2C[C@@H](CO)[C@@H]3Oc4ccc(Cl)cc4[C@@H]32)cc1	inconclusive: 50.1 µM [inhibitor, partial curve, poor fit]		
CC(=O)NCc1nnc2n1C(C(=O)NCc1cccc(Cl)c1)CC2 (stereo unspecified)		inactive: -8.55% [at 138 µM]	
Cc1ccc(C2Cn3nnc(-c4noc(C5CCCCC5)n4)c3CO2)cc1 (stereo unspecified)		inactive: -2.48%	
O=C(c1ccccc1)N1Cc2[nH]cnc2C[C@H]1c1nc(-c2ccc(Cl)cc2)no1	inconclusive: 56.2 µM [inhibitor, partial curve, poor fit]		
